# From PubChem BioAssay AID588579 (National Center for Advancing Translational Sciences (NCATS), 2011)
# “And” between values parts separate entries of the source, which are not always exact repeats. Equal values may be shown once. Hit rate of the full screen: of about 400,000 compounds, about 2,200 (0.55%) were called active. This list was built around the results that the source calls inconclusive (neither active nor inactive); the mix of calls is not that of the screen. Calls come from the whole dose curve; as a rule, active = well fitted inhibition curve with a large enough effect; inconclusive = small, poorly fitted or top-dose-only effect, or another doubt; inactive = no such curve, though single readings can be large or run the other way. A potency beside an inconclusive call is a rough fit, not a confirmed value.
# Biological target: DNA polymerase kappa (Homo sapiens) (UniProt Q9UBT6)
# Assay: qHTS for Inhibitors of Polymerase Kappa
# Conditions: purified Pol kappa, fluorescent DNA synthesis assay, 10 min; series mostly up to 107 µM
# Procedure, shortened: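 Kinetic fluorescence readout at 0 and 10 min followed reaction start with substrate at 50 nM final. Beforehand, enzyme (10 nM Pol kappa) stood 15 min with compound at room temperature; buffer-only wells were negative controls.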
# Potency is the fitted concentration of half-maximal effect; tags give direction and shape of the fitted curve.
# Chain of UniProt Q9UBT6 (Q9UBT6 whole entry, looked up): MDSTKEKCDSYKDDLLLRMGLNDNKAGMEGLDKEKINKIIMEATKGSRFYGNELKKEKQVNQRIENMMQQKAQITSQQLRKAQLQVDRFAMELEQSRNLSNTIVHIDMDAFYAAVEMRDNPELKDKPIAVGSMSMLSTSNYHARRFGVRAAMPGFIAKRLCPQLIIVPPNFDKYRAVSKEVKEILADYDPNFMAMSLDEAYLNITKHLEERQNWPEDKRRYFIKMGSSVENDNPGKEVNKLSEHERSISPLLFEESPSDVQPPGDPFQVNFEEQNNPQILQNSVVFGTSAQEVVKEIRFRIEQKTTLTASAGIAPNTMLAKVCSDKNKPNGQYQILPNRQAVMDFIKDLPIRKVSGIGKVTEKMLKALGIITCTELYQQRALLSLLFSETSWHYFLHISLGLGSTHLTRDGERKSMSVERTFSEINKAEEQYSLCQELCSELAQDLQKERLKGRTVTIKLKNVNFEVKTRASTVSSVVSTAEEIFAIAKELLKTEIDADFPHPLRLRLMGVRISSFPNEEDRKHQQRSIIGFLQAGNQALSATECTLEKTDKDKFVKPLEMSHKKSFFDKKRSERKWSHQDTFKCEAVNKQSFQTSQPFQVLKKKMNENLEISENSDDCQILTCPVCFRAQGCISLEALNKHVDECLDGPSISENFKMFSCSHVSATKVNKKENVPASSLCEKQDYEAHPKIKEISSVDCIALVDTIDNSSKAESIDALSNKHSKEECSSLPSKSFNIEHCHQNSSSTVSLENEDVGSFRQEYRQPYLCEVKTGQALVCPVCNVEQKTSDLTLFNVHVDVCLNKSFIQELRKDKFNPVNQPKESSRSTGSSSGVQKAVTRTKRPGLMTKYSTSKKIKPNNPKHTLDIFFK
row,Molecule,Potency
1,CCc1ccc(/C=C2\C(=N)N3N=C(CC(=O)N4CCCCC4)SC3=NC2=O)cc1,"inconclusive: 89.1 µM [inhibitor, single point]"
2,COc1ccc(CCNC(=O)/C=C/c2ccco2)cc1,inactive
3,CC(C)(C)OC(=O)NCCCCC1=CC2=CC(=O)C(C)(O)C(=O)C2=CO1 (centres undefined),active: 79.4 µM
4,COc1ccc(NCC(=O)N2CCCC2)cc1Cl,inactive
5,Cc1ccc(-c2n[nH]c3c2C(c2cccs2)N(c2ccc(Cl)cc2)C3=O)cc1 (centres undefined),inactive
6,O=c1cc(-c2cccc(O)c2)oc2c(O)c(O)ccc12,active: 2.82 µM
7,Cc1csc2c(SCC(=O)NNC(=O)C(Cl)Cl)ncnc12,"inconclusive: 89.1 µM [inhibitor, partial curve, poor fit]"
8,C=C(C)C(=O)Nc1cccc(C2=NOC3(C2)C[C@H](C(N)=O)N(C(=O)/C=C/C)C3)c1 (some centres undefined),"inconclusive: 56.2 µM [inhibitor, partial curve, poor fit]"
9,CN=c1scc(-c2cccs2)n1/N=C/c1ccc(O)c(O)c1O,"inconclusive: 39.8 µM [inhibitor, partial curve, poor fit]"
10,C=CCc1ccccc1OCC(O)CNC(C)C (centres undefined),"inconclusive: 33.6 µM [inhibitor, partial curve, poor fit]"
11,CCc1ccc2[nH]c(=O)c(-c3ccccc3)c(O)c2c1,inactive
12,COc1ccc(C2c3c(oc4ccccc4c3=O)C(=O)N2c2nc(C)c(C)s2)cc1 (centres undefined),inactive
13,O=C(NN1C(=O)/C(=C/c2ccc(O)c([N+](=O)[O-])c2)SC1=S)c1ccccc1Cl,active: 44.7 µM
14,Oc1c(Cl)cc(Cl)cc1Sc1cc(Cl)cc(Cl)c1O,"inconclusive: 33.6 µM [inhibitor, single point] and inconclusive: 39.8 µM [inhibitor, single point]"
15,CC(C)NC(=O)COC(=O)CNC(=O)C1CCCCC1,inactive
16,Cc1nc(N=Nc2ccc(S(=O)(=O)O)cc2S(=O)(=O)O)c(COP(=O)(O)O)c(C=O)c1O,"inconclusive: 8.91 µM [inhibitor, single point]"
17,COC(=O)c1cc2oc3ccccc3c2n1CC(=O)Nc1ccc(N(C)C)cc1,inactive
18,O=C(c1n[nH]c(=O)c2ccccc12)N1CCOCC1,inactive
19,Ac-LMDKEAVYFAHLDIIW-OH,"inconclusive: 29.9 µM [inhibitor, single point]"
20,N#CC1=C(N)n2c(s/c(=C\c3cccs3)c2=O)=C(C#N)C1c1cccs1 (centres undefined),"inconclusive: 89.1 µM [inhibitor, single point]"
21,CC(C)C[C@@H](CNCC(=O)[C@H](Cc1c[nH]c2ccccc12)NC(=O)c1[nH]cnc1C(=O)N[C@H](CN)CC(C)C)NC(=O)c1nc[nH]c1C(=O)N[C@@H](CC(=O)O)C(=O)O,"inconclusive: 79.4 µM [inhibitor, partial curve, poor fit]"
22,Cc1ccc2nc(Cl)c(/C=N/Nc3ccc(C(=O)O)cc3)cc2c1,"inconclusive: 89.1 µM [inhibitor, single point]"

row,Molecule,Potency
1,NC(=O)[C@@H]1CCCCNc2c(I)cc([N+](=O)[O-])cc2C(=O)N[C@@H](CCC(=O)O)C(=O)N[C@@H](CO)C(=O)N1,active: 50.1 µM
2,O=c1[nH]c(=S)[nH]c2c1C(c1ccc(Br)cc1)c1c([nH]c(=S)[nH]c1=O)O2,active: 3.98 µM
3,CCOc1ccccc1-n1nnnc1SCC(=O)NC(=O)NCc1ccco1,"inconclusive: 79.4 µM [inhibitor, single point]"
4,COc1ccc(OC)c(NC(=O)CSc2ncnc3sc(C)cc23)c1,"inconclusive: 79.4 µM [inhibitor, partial curve]"
5,O=C(O)/C(CC(=O)c1ccc(Cl)cc1)=N/Nc1ccc([N+](=O)[O-])cc1[N+](=O)[O-],"inconclusive: 100 µM [inhibitor, partial curve, poor fit]"
6,CN(CC(=O)Nc1cccc(F)c1)C(=O)c1ccc(COc2ccccc2)cc1,inactive
7,Cc1ccc(Sc2ccc(S(=O)(=O)Nc3ccc(C(=O)O)cc3)cc2)cc1C,"inconclusive: 89.1 µM [inhibitor, partial curve, poor fit]"
8,Cc1ccc2c(nc3s/c(=C\c4ccc(-c5ccccc5C(=O)O)o4)c(=O)n32)c1C,"inconclusive: 28.2 µM [inhibitor, partial curve]"
9,Cc1c(O)cccc1C(=O)N[C@@H](CSc1ccccc1)[C@H](O)CN1C[C@H]2CCCC[C@H]2C[C@H]1C(=O)NC(C)(C)C,"inconclusive: 35.5 µM [inhibitor, partial curve, poor fit]"
10,COC(=O)c1cc(C(=O)OC)n(Cc2ccc(C)cc2)c1C,"inconclusive: 79.4 µM [inhibitor, partial curve, poor fit]"
11,O=C1OCCN1C(=O)[C@H]1[C@H](c2ccc(F)cc2)C(c2ccccc2)=NN1c1ccc(Br)cc1,"inconclusive: 15.8 µM [inhibitor, partial curve, poor fit]"
12,COc1ccc(C(C)(C)C)cc1NC(=O)COC(=O)c1ccc([N+](=O)[O-])o1,inactive
13,CCCCc1nn(-c2ccccc2C(F)(F)F)c(=O)n1Cc1ccc(-c2ccccc2S(=O)(=O)NC(=O)c2sccc2C)cc1,"inconclusive: 37.7 µM [inhibitor, single point]"
14,CCSc1ccc2c(c1)N(CCCN1CCN(C)CC1)c1ccccc1S2,"inconclusive: 16 µM [inhibitor, single point]"
15,CC(=O)c1cccc(NC(=O)CSc2ccc(-c3ccco3)nn2)c1,"inconclusive: 89.1 µM [inhibitor, single point]"
16,Nc1ncnc2oc(-c3ccoc3)c(-c3ccco3)c12,active: 20 µM
17,CCOC(=O)NC(=O)/C(C#N)=N\Nc1cccc(Cl)c1,"inconclusive: 3.55 µM [inhibitor, partial curve, poor fit]"
18,CC[C@@H]1C(c2cccc(Cl)c2)=NN(c2ccc(Br)cc2)[C@H]1C(=O)N1CCOC1=O,"inconclusive: 0.316 µM [inhibitor, full curve, poor fit]"
19,COc1cc2c(NC3CCN(C)CC3)nc(N3CCCN(C)CC3)nc2cc1OCCOCCN(C)C,inactive
20,O=C(O)c1ccc(NS(=O)(=O)c2ccc3c(c2)C(=O)c2cc(S(=O)(=O)Nc4ccc(C(=O)O)cc4)ccc2-3)cc1,active: 79.4 µM
21,Cn1c(SCC(=O)Nc2nncs2)nnc1C1CC1,"inconclusive: 56.2 µM [inhibitor, partial curve, poor fit]"
22,Cc1cnc(CNc2ncnc3ccc(-c4cccc(C#N)c4)cc23)cn1,"inconclusive: 39.8 µM [inhibitor, single point]"

row,Molecule,Potency
1,O=C(O)c1ccc(C2Nc3ccccc3-c3nnc(SCc4ccc(Cl)cc4)nc3O2)cc1 (centres undefined),"inconclusive: 89.1 µM [inhibitor, single point]"
2,CCS(=O)(=O)Nc1cc2c3c(c1)CCN3C(=O)CC2,active: 79.4 µM
3,C=CCN1C=C2C(=O)C(C)(OC(=O)c3cnc4ccccc4n3)C(=O)C=C2C=C1/C=C/COC (centres undefined),"inconclusive: 70.8 µM [inhibitor, single point]"
4,CCOC(=O)c1sc(N/N=C/c2cc(Br)c(O)c(OC)c2)nc1C,"inconclusive: 89.1 µM [inhibitor, partial curve, poor fit]"
5,CCn1c(SCC(=O)NNC(=O)c2ccc(C)cc2)nnc1C1CC1,"inconclusive: 100 µM [inhibitor, partial curve, poor fit]"
6,CCCOc1ccc(C(=O)NCC2OCCc3ccccc32)cc1 (centres undefined),inactive
7,COc1cc(Cl)cc(C2NC(=O)NC(C)=C2C(C)=O)c1OCC(=O)O (centres undefined),"inconclusive: 79.4 µM [inhibitor, single point]"
8,O=C(NCc1ccc2c(c1)OCO2)c1nc(Cn2cc(Br)cn2)no1,inactive
9,CCOC(=O)C1=C(C)NC(=O)NC1c1ccc(C)o1 (centres undefined),"inconclusive: 89.1 µM [inhibitor, partial curve, poor fit]"
10,c1ccc(Cn2c(SCc3nc4ccccc4s3)nnc2-c2ccco2)cc1,"inconclusive: 50.1 µM [inhibitor, partial curve, poor fit]"
11,CC1CCc2c(sc3nc(SCC(=O)O)n(-c4ccccc4)c(=O)c23)C1 (centres undefined),"inconclusive: 39.8 µM [inhibitor, single point]"
12,CC(=O)c1ccc(S(=O)(=O)Nc2c(C)nn(C)c2C)cc1,"inconclusive: 89.1 µM [inhibitor, single point]"
13,O=C(CCS(=O)(=O)c1ccc(Br)cc1)Nc1ccc2c(c1)OCO2,"inconclusive: 89.1 µM [inhibitor, partial curve, poor fit]"
14,COc1ccccc1CNS(=O)(=O)c1ccc2[nH]cc(C(=O)O)c(=O)c2c1,active: 79.4 µM
15,Cc1ccc(N2C(=O)C3C4C=CC(C4)C3C2=O)cc1C (centres undefined),inactive
16,Cc1ccc(-c2cc(-c3ccco3)c(C#N)c(=O)[nH]2)cc1,"inconclusive: 79.4 µM [inhibitor, single point]"
17,CCC(C)N(c1ccc(/C=C/c2ccnc3ccccc23)cc1)C(C)CC (centres undefined),inactive
18,C/C(N)=C(/C#N)C(=O)CSc1nnc(NC(C)C)s1,"inconclusive: 39.8 µM [inhibitor, full curve, poor fit]"
19,O=C(O)c1cccc(COc2ccc3c(c2)CCC3)c1,"inconclusive: 89.1 µM [inhibitor, partial curve, poor fit]"
20,CCOC(=O)C1=C(CSc2nc3c(cc2C#N)CN(C)CC3)OC(N)=C(C#N)C1c1ccc(F)cc1 (centres undefined),"inconclusive: 79.4 µM [inhibitor, partial curve]"
